Source: PubChem BioAssay (NCI)
Several values for one entry are separate records, joined by “and”; a condition that tells them apart may be missing. Identical values can stand only once.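 Each compound was tested at five concentrations against cells in 96-well plates for 48 hours. Abbreviation: GI50, concentration required for 50% inhibition of growth. Definition used: TGI = concentration required for complete inhibition of growth.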 Square brackets hold non-standard residues; d marks the D form. Peptide text beside a SMILES is read from it. Orn = NCCC[CH](N)C(=O)O

System: NCI-H322M lung
Experiment: NCI tumour cell line growth inhibition, 48 h

| Compound | TGI | GI50 |
| --- | --- | --- |
| Nc1nc(Cl)cc(NCC2(CO)CC(Cc3ccccc3)C2)n1 (stereo unspecified) | > 100 µM | – |
| Cc1ccc(S(=O)(=O)C2=C3C(=C(c4ccccc4)c4ccccc43)CN(S(=O)(=O)c3ccc(C)cc3)C2)cc1 | > 100 µM | > 100 µM |
| O=c1nc2[nH]nc(-c3ccccc3)c2n[nH]1 | > 100 µM | – |
| CC(=O)OCC(OC(C)=O)C(OC(C)=O)C(OC(C)=O)C(/C=N\Nc1nc2ccccc2c(=O)[nH]1)OC(C)=O (stereo unspecified) | > 100 µM | – |
| O=C(Nc1cccc(-n2cc(-c3ccncc3)c(-c3ccc(O)c(Cl)c3)n2)c1)Nc1ccc(Cl)c(C(F)(F)F)c1 | 12.2 µM | 2.73 µM |
| C[C@]12CCC(=O)C=C1CC[C@@H]1[C@@H]2CC[C@]2(C)C(=O)/C(=C\c3ccccc3)C[C@@H]12 | > 100 µM | – |
| CCCC[Si](CCCC)(CCCC)O[C@@H](/C=C/C(=O)OCC)[C@H](Cc1ccccc1)O[Si](CCCC)(CCCC)CCCC | > 100 µM | – |
| Clc1cccc(Cl)c1C1SCc2nc3ncccc3n21 (stereo unspecified) | > 100 µM | – |
| COc1cc2c(cc1OC)C(=O)/C(=C/c1ccccc1)C2 | > 100 µM | – |
| O=C(CN/C=C\C(=O)c1cc(Cl)ccc1Cl)c1ccccc1 | > 100 µM | 81.1 µM |
| CC(=O)O[C@@H]1CC(=O)O[C@@H]2C[C@@H](CC/C(Cl)=C/C/C=C\1C)O[C@@H]2CO | > 5.12 µM | – |
| COc1cc(C2SC(N)=Nc3c2c(C)nn3C(=O)Cc2ccccc2)ccc1O (stereo unspecified) | > 100 µM | – |
| CN(C)C(=S)SCc1ccccc1 | > 100 µM | – |
| CSc1ccc2c(c1)C(=O)c1c-2n(CCCN=[N+]=[N-])c(=O)c2cc([N+](=O)[O-])ccc12 | > 100 µM | > 26.9 µM |
| OCCCNC(=S)Nc1ccc(-c2nc3ccccc3s2)cc1 | > 100 µM | 24.9 µM |
| O=C(NC1CCN(Cc2ccccc2)CC1)c1ccccc1I | > 100 µM | – |
| C/C(=C\[C@H]1C[C@@H]([C@@H]2CC[C@]34C[C@]23C=C[C@@H]2[C@@]3(C)CC=C5C[C@@H](c6ccccc6)OC[C@]5(C)[C@@H]3C[C@@H](O)[C@]24C)C(=O)O1)CO | > 58.1 µM | – |
| COc1ccc2c(c1)N(CCC1CCCCN1C)c1ccccc1S2 (stereo unspecified) | 28.1 µM | – |
| Cc1cc(NC(=O)C(=O)Cc2nc3ccccc3s2)ccc1Cl | > 100 µM | – |
| COC(=O)c1cc(/C=C2\Cc3cc4c(cc3C2=O)CCC4)cc2c1CCC2 | > 100 µM | – |
| CC(C)[C@H](NC(=O)[C@@H](O)[C@H](N)Cc1ccccc1)C(=O)N[C@@H](Cc1ccccc1)C(=O)O | > 100 µM | – |
| O=C(Nc1cccc2ccccc12)c1cc2ccccc2cc1O | 6.77 µM | 2.39 µM |
| COc1ccc2oc(-c3ccc(Cl)cc3)c(N3CCN(C)CC3)c2c1 | 9.15 µM | 2.71 µM |
| O=c1[nH]c(C2CCCCC2)nc2cc(Cl)ccc12 | > 100 µM | – |

| Compound | TGI | GI50 |
| --- | --- | --- |
| CCCCN1C(=O)C[C@H]2[C@@H]3CCc4cc(OCCN5CCCC5)ccc4[C@H]3CC[C@]2(C)C1=O | 22.1 µM | – |
| CC(C)(C)OC(=O)N1C(=O)OC[C@@H]2C=C[C@@H]21 | > 100 µM | – |
| CN(C)N1C(=O)CC2(CCN(CCCC(=O)c3ccc(F)cc3)CC2)C1=O | > 100 µM | – |
| O=c1[nH][nH]c(=S)c(=O)[nH]1 | > 100 µM | – |
| O=CNc1ccc2c(c1)Cc1cc([N+](=O)[O-])ccc1-2 | > 100 µM | 1.91 µM |
| O=C1/C(=c2\c3ccccc3n3c(=O)c4ccccc4nc23)Nc2ccccc21 | > 100 µM | – |
| NS(=O)(=O)c1ccc(NCc2cnc3ccccc3c2)cc1 | > 100 µM | – |
| COC(=O)/C(Br)=C/c1c[nH]c2ccc(Br)cc12 | 39.9 µM | 17.5 µM |
| Cc1ccccc1Nc1cn(CCOc2ccccc2)c(=O)n(CCOc2ccccc2)c1=O | > 100 µM | – |
| O=C(O)C#Cc1ccc([N+](=O)[O-])cc1 | > 100 µM | – |
| C/C(CC(=O)Nc1ccc([N+](=O)[O-])cc1)=N/N=C(N)N | > 100 µM | – |
| CC(C)CC1NC(=O)C(CCCN)NC(=O)C(C(C)C)NC(=O)C2CCCN2C(=O)C(Cc2ccccc2)NC(=O)C(CC(C)C)NC(=O)C(CCCN)NC(=O)C(C(C)C)NC(=O)C2CCCN2C(=O)C(Cc2ccccc2)NC1=O (stereo unspecified) (cyclo(FPV[Orn]LFPV[Orn]L); configuration not given here) | 0.487 µM and 1.29 µM | 0.0134 µM and 0.0483 µM |
| Cc1ccc(S(=O)(=O)N2C/C(=C\c3cc(F)cc(F)c3)C(=O)/C(=C/c3cc(F)cc(F)c3)C2)cc1 | 12.2 µM | 3.28 µM |
| COc1cc([C@@H]2c3cc4c(cc3[C@@H](NC(=O)c3ccc([N+](=O)[O-])cc3)C3COC(=O)[C@@H]32)OCO4)cc(OC)c1O (stereo partly specified) | 85.9 µM | – |
| C(#Cc1ccccc1C#Cc1ccccn1)c1ccc(OCCCCCCOc2ccc(C#Cc3ccccc3C#Cc3ccccn3)cc2)cc1 | 16.7 µM | 6.61 µM |
| O=C(O)C1CCCN1Cc1ccc2c(c1)OCO2 (stereo unspecified) | > 100 µM | – |
| CCOC(=O)C1C(=O)CC(C)(O)C(C(=O)OCC)C1c1ccc(OC)cc1 (stereo unspecified) | > 100 µM | – |
| O=C(CN1C(=O)c2ccccc2C1=O)OCC1CCCN2CCCCC12 (stereo unspecified) | > 100 µM | – |
| CN(CCNC(=O)c1cc(-c2ccccc2)nc2ccccc12)CCNC(=O)c1cc(-c2ccccc2)nc2ccccc12 | > 100 µM | – |
| COC(=O)/C(Cl)=C1/CC1COCc1ccccc1 (stereo unspecified) | > 100 µM | – |
| COC(C(=O)[C@@H](O)[C@@H](C)O)[C@@H]1Cc2cc3cc(O[C@H]4C[C@@H](O[C@H]5C[C@@H](O)[C@H](O)C(C)O5)[C@H](O)C(C)O4)c(C)c(O)c3c(O)c2C(=O)[C@H]1O[C@H]1C[C@@H](O[C@H]2C[C@@H](O[C@H]3C[C@@H](O)[C@@H](O)C(C)O3)[C@@H](O)C(C)O2)[C@H](O)C(C)O1 (stereo partly specified) | > 32.5 µM | 0.209 µM |
| CC1=C/C(=C(/c2ccc(O)c(C)c2)c2ccccc2C(=O)O)C=CC1=O | 34.6 µM | – |
| CO/N=C/c1c(-c2ccc(Cl)cc2)c(/C=N/OC)n2c1sc1ccccc12 | > 100 µM | – |
| COc1ccc(/C=C2\CCCC3=C2N=C2SC=NN2C3c2ccc(OC)c(OC)c2)cc1OC (stereo unspecified) | > 100 µM | 83.2 µM |

| Compound | TGI | GI50 |
| --- | --- | --- |
| CC(C)(Cc1ccccc1)Cc1cc(O)ccc1O | > 100 µM | – |
| CCOC(=O)c1cc(Cl)ccc1OC(N)=O | > 100 µM | – |
| Cc1ccc(C(=O)Nc2ccc(CP(=O)(O)O)cc2)cc1NC(=O)Nc1cc(C(=O)Nc2ccc(CP(=O)(O)O)cc2)ccc1C | > 100 µM | – |
| CCC1=C[C@H]2CN(CCc3c([nH]c4ccccc34)[C@@](C(=O)OC)(c3cc4c(cc3OC)N(C)[C@H]3[C@@](O)(C(=O)OC)[C@H](OC(C)=O)[C@]5(CC)[C@@H]6C[C@@H]6CN6CC[C@]43[C@@H]65)C2)C1 | 10.2 µM | 0.0952 µM |
| O=C(NO)c1ccc(OCc2ccccc2)cc1 | > 100 µM | – |
| O=C(/C=C/c1ccc2c(c1)OCO2)c1ccccc(=O)c1O | 45.7 µM | – |
| Nc1nc(Cl)nc2c1ncn2C1CCC(CO)O1 (stereo unspecified) | > 100 µM | – |
| CC[C@@H]1C[C@@H](O)[C@@H]2[C@H](O)[C@H](O)CN2C1 | > 100 µM | – |
| N=c1c2c(=O)n3c(nc2nc2sc4ccc(Cl)cc4n12)-c1ccccc1Sc1ccccc1-3 | 8.91 µM | 1.94 µM |
| COc1ccc2c(c1)c(=O)oc1cc(OC/C(=N\O)c3ccc(F)cc3)ccc12 | 54.8 µM | 21 µM |
| Nc1nc(Cl)cc(NCC2(CO)CCC(OCc3ccccc3)C2)n1 (stereo unspecified) | 74.2 µM | – |
| N=C1N=Nc2nc(C3(c4nc5n(c4O)C(=N)N=N5)Cc4ccccc4C3=O)c(O)n21 (stereo unspecified) | > 100 µM | – |
| c1ccc(-c2cc(-c3cc(-c4ccccc4)no3)on2)cc1 | > 100 µM | – |
| O=C(CN1CCCC1)Nc1ccc2sc3ccccc3c(=O)c2n1 | 54.3 µM | – |
| Nc1nn(C(=O)Nc2ccc(Cc3ccccc3)cc2)c2ccccc12 | > 100 µM | 27.8 µM |
| CCOC(=O)c1cc(C2(OC)CCN(Cc3ccccc3)C2=O)c(-c2cc(C)no2)[nH]1 (stereo unspecified) | > 100 µM | – |
| COc1ccc(OC)c2c3c(ncc12)-c1cc2c(cc1C3)OCO2 | > 100 µM | > 100 µM |
| COc1cc(OC)nc(NC(=O)NS(=O)(=O)c2cccc3ncn(C)c(=O)c23)n1 | > 100 µM | – |
| O=C(O)CCCC#CCCCC(=O)O | > 100 µM | – |
| O=CN/C=C/c1ccccc1O | > 100 µM | – |
| Cc1ccc(C2CC(c3cccc(Nc4ccncc4)c3)=NN2c2ccc(Cl)cc2)cc1 (stereo unspecified) | 2.89 µM | 1.54 µM |
| FC(F)(F)c1ccccc1C=NC12CC3CC(CC(C3)C1)C2 | > 100 µM | – |
| N=C(N)c1ccc(-c2ccc(-c3ccc(C(=N)N)cc3)o2)cc1 | > 100 µM | – |
| COc1ccc2nc(-c3ccc(O)cc3)cn2c1 | > 100 µM | – |

| Compound | TGI | GI50 |
| --- | --- | --- |
| CCOC(=O)C1=C(N)Oc2cc(OC)ccc2C1c1ccc(F)c(F)c1 (stereo unspecified) | 19.5 µM | 6.27 µM |
| COc1ccc(/C=C/C(=O)c2ccc(NC(=O)CSc3nnc(-c4cc(OC)c(OC)c(OC)c4)o3)cc2)cc1 | 2.98 µM | 1.59 µM |
| COC(=O)c1cc(O)ccc1NC(=O)c1ccc(O)cc1 | > 100 µM | – |
| CC1(c2nc3cc(Cl)c(Cl)cc3[nH]2)CCC(C(=O)O)C(C)(C)O1 (stereo unspecified) | > 100 µM | – |
| CCCCC/C(=N\c1nc[nH]c1C(N)=O)OCC | > 100 µM | – |
| CC[C@]12C=CCN3CCC4(c5cc(N=Nc6ccc([N+](=O)[O-])cc6)c(OC)cc5N(C)[C@H]4[C@@](O)(C(=O)OC)[C@@H]1OC(C)=O)[C@@H]32 (stereo partly specified) | 67.3 µM | – |
| CC(C)(C)C1=NN=C2c3ccccc3C(=O)C21 (stereo unspecified) | > 100 µM | – |
| N#C/C(N)=C(\C#N)N=CNc1ccccc1N | > 100 µM | – |
| C=C1CCC2C(C)(CO)C(O)CCC2(C)C1CC(O)C1=CCOC1=O (stereo unspecified) | > 100 µM | – |
| CC1=NN(c2ccccc2)C(=O)C1C(=O)C(=O)Nc1ccc(C)cc1C (stereo unspecified) | > 100 µM | – |
| O=C1CSc2ccncc2N1 | > 100 µM | – |
| O=S(=O)(c1ccccc1)C1CN(Cc2ccccc2)CCN(Cc2ccccc2)C1 | > 100 µM | – |
| CCCNNC(=O)c1ccc(CNC(=O)/C=C/c2ccccc2)cc1 | 3.75 µM | 0.212 µM |
| Cc1cc(Cl)ccc1Nc1nc(C(F)(F)F)ccc1C(=O)N/N=C/c1c(Cl)cccc1Cl | 0.873 µM | 0.212 µM |
| CCC(/C=C/c1ccccc1)=N\N=C(\C=C\c1ccccc1)CC | > 100 µM | – |
| CC(C)C(/C=C/c1ccc(Cl)cc1)=N\NC(=S)NN | > 100 µM | – |
| CCN1CCN(Cc2ccc3cc(C(=O)Nc4cc(NC(=O)c5ccc6c(c5)OCCO6)ccc4F)ccc3n2)CC1 | 3.63 µM | 0.0477 µM |
| COC(=O)CCC(=O)C(C#N)c1ccc(Cl)cc1Cl (stereo unspecified) | > 100 µM | – |
| O=C1c2cccnc2-c2nccc3ccnc1c23 | 23.1 µM | – |
| Cn1c(-c2ccccc2)c/c(=N\NS(C)(=O)=O)c2cc(S(=O)(=O)O)ccc21 | > 100 µM | – |
| CN(C)C1COC2Cc3ccccc3C1O2 (stereo unspecified) | > 100 µM | – |
| C/C(=C\c1ccc2c(c1)OCO2)[N+](=O)[O-] | 30.1 µM | – |
| COc1ccc2cc(C(=O)/C=C/c3ccccc3OC)ccc2c1 | 22 µM | 3.64 µM |
